# Measured values as given in PubChem BioAssay (Tox21).
# Results filed as inconclusive are left out. Unless noted, calls follow the shape of the dose curve; as a rule, active = well fitted curve in the direction sought with a large enough effect in the repeat runs; inconclusive = weak or mixed curves; inactive = no such curve, though single readings can be large; an effect the other way counts as inactive or inconclusive. The source holds several records for some structures; these can differ, active in one and inactive in another. For part of its entries the source gives two or more results. Only these are listed. The source may hold further records. Results that share an entry repeat one measurement (runs, samples, wells, individuals or studies). A tag in brackets gives the origin of a value. Letters count within one entry.
# Key:
# [1] = qHTS assay to identify small molecule agonists or antagonists of the thyroid stimulating hormone receptor (TSHR) signaling pathway - wild type cell line counter screen (AID 1259384; calls by dose curve); conditions: HEK293 wild type, cAMP HTRF counter-screen; series mostly up to 92.4 µM
# In short: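 Wild-type Hek293 cells, 800/well, 18 h at 37C, then compound with Ro20-1724 for 30 min RT. cAMP by HTRF (cAMP-d2/anti-cAMP cryptate), 1 h RT, fluorescence read. 15 concentrations, triplicates.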
# [2] = qHTS assay to identify small molecule antagonists of the thyroid receptor (TR) signaling pathway (AID 743065); conditions: GH3.TRE-Luc, T3-stimulated luciferase inhibition, 23.5 h; series mostly up to 70.3 µM; also: nearly all actives have a fitted effect of over 55% in size
# Text: U.S. Tox21 Program National Center for Advancing Translational Sciences [NCATS] NIH Chemical Genomics Center [NCGC] U.S. Environmental Protection Agency [EPA] National Institutes of Environmental Health Sciences [NIEHS] National Toxicology Program [NTP] U.S. Food and Drug Administration [FDA] Tox21 Assay Overview: Thyroid receptor (TR), a nuclear hormone receptor, plays an important role in development, proliferation, differentiation, metabolism, brain function, and cardiovascular system. […] To profile the Tox21 10K compound library in TR signaling, a cell-based GH3-TRE-Luc assay (GH3.TRE-Luc cell line, developed by the laboratory of Dr. Albertinka J. Murk, Wageningen University) was used to measure the inhibition of TR. GH3 (rat pituitary tumor) cells stably expressing a TR activity sensor consisting of two TR response elements and a luciferase reporter gene.
# Tox21 Assay Protocol Summary: GH3.TRE-Luc cells were dispensed at 1500 cells/4 uL/well into 1536-well white solid bottom plates using a Multidrop Combi dispenser (Thermo Fisher Scientific Inc., Waltham, MA). […] The plates were incubated at 37 C and 5% CO2 for additional 30 min, and fluorescence intensity was measured by a ViewLux plate reader (PerkinElmer, Shelton, CT). […] The luminescence intensity of plates was recorded by a ViewLux plate reader (PerkinElmer, Shelton, CT).
# [3] = qHTS assay to identify small molecule agonists of the constitutive androstane receptor (CAR) signaling pathway - cell viability counter screen (AID 1224836); conditions: HepG2-CYP2B6-hCAR viability, CellTiter-Fluor, 23 h, PK11195 added to every well; series mostly up to 92.4 µM; also: nearly all actives have a fitted effect of over 45% in size
# In short: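 HepG2 cells stably carrying hCAR and a CYP2B6-2.2kb reporter; 15-concentration compounds plus PK11195 (final 0.75 uM), 23 hr at 37 C/5% CO2. Viability read by CellTiter-Fluor fluorescence.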
# [4] = qHTS assay to identify small molecule antagonists of the constitutive androstane receptor (CAR) signaling pathway - cell viability counter screen (AID 1224837); conditions: HepG2-CYP2B6-hCAR viability, CellTiter-Fluor, 23 h, co-treated with 50 nM CITCO; series mostly up to 92.4 µM; also: nearly all actives have a fitted effect of over 45% in size
# Text: National Center for Advancing Translational Sciences [NCATS]
# NIH Chemical Genomics Center [NCGC]
# U.S. Environmental Protection Agency [EPA]
# National Institutes of Environmental Health Sciences [NIEHS]
# National Toxicology Program [NTP]
# U.S. Food and Drug Administration [FDA]
# The constitutive androstane receptor (CAR) is a nuclear receptor which regulates multiple drug metabolizing enzymes (DMEs) and transporters. Activating CAR will generally increase the transcription and subsequent translation of CYP2B6 and CYP3A4. These two DMEs represent about 50% of the drug metabolizing potential in the body. When CAR is deactivated, the metabolizing potential in the body will decrease, subsequently increasing the toxicity in the body or lowering the therapeutic potential of a pro-drug. Recently, there have also been studies performed indicating CARs role in energy metabolism and cancer therapy. Therefore, inhibiting CARs activity could have a potential effect on diabetes and cancer. […]
# A double-stable (hCAR and CYP2B6-2.2kb) transfected cell line, derived from human hepatoma (HepG2) cells, was utilized for the duration of the quantitative high-throughput screens. […] The fluorescence intensity in the plates was then measured using a ViewLux plate reader.
# [5] = qHTS assay to identify small molecule antagonists of the estrogen receptor alpha (ER-alpha) signaling pathway using the BG1 cell line in the presence of 0.1 nM 17-beta-estradiol - cell viability counter screen (AID 1259241); conditions: VM7Luc4E2 (BG1) viability, CellTiter-Fluor protease, 22 h, 0.1 nM estradiol agonist added; series mostly up to 92.4 µM; also: nearly all actives have a fitted effect of over 40% in size
# In short: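 VM7Luc4E2 cells (endogenous full-length ER-alpha, 4xERE-luciferase), cultured 5 days in charcoal-stripped serum, exposed to compounds with 0.1 nM 17beta-estradiol (final) for 22 hr at 37C. Viability read in same wells as live-cell protease fluorescence after 30 min.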
# [6] = qHTS assay to identify small molecule antagonists of the progesterone receptor (PR) signaling pathway - cell viability counter screen (AID 1346798); conditions: PR-UAS-bla HEK293T viability, CellTiter-Glo luminescence, 16 h; series mostly up to 92.4 µM; also: nearly all actives have a fitted effect of over 50% in size
# In short: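 PR-UAS-bla HEK293T cells, 3,000/well in 2% charcoal-stripped FBS medium, dosed with compounds plus R5020 agonist and incubated 16 h at 37C. Viability then measured in the same wells by CellTiter-Glo luminescence after 30 min at RT.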
# [7] = qHTS assay to identify small molecule antagonists of the TGF-beta/Smad signaling pathway - cell viability counter screen (AID 1346824); conditions: SBE-bla HEK293T viability, CellTiter-Glo luminescence; series mostly up to 76.8 µM; also: nearly all actives have a fitted effect of over 50% in size
# Text: U.S. Tox21 Program National Center for Advancing Translational Sciences [NCATS] NIH Chemical Genomics Center [NCGC] U.S. Environmental Protection Agency [EPA] National Institutes of Environmental Health Sciences [NIEHS] National Toxicology Program [NTP] U.S. Food and Drug Administration [FDA] Tox21 Assay Overview: Transforming growth factor beta (TGF-beta) superfamily consists of a large number of structurally related dimeric proteins that act as hormones or local mediators in regulating a wide range of biological functions. This superfamily includes TGF-betas themselves, the bone morphogenetic proteins (BMPs) and the activins. […]
# Tox21 Assay Protocol Summary: SBE-bla HEK 293T cells were dispensed at 4,000/well in 5 uL of assay medium into black wall/clear-bottom 1536-well plates using a Multidrop Combi (ThermoFisher Scientific, Waltham, MA) dispenser. […] Fluorescence intensity (405 nm excitation, 460 nm and 530 nm emissions) was measured using an Envision plate reader (PerkinElmer, Shelton, CT). For cytotoxicity read, 4 uL of CellTiter-Glo reagent (Promega Corporation, Madison, WI) was added to each well of the assay plates using FRD. After 30 min incubation at room temperature, the luminescence intensity was measured using ViewLux plate reader (PerkinElmer).
# Potency is read from the fitted curve at half-maximal effect.
structure (smiles),measurement,setting,value
O=[N+]([O-])c1ccccc1C(F)(F)F,Potency,[1],active: 59.8 µM [sample A] and inactive [sample B]
COc1cc(NC(=O)CC(C)=O)c(OC)cc1Cl,Potency,[2],inactive [sample A] and active: 38.6 µM [sample B]
CC1=CC(=O)CC(C)(C)C1,Potency,[3],active: 15.8 µM [sample A] and inactive [sample B]
same,Potency,[4],active: 12.5 µM [sample A] and inactive [sample B]
same,Potency,[5],active: 22.3 µM [sample A] and inactive [sample B]
same,Potency,[6],active: 14.1 µM [sample A] and inactive [sample B]
CO[Si](CCCNCCN)(OC)OC,Potency,[7],active: 44.3 µM [sample A] and inactive [sample B]
